We go through 84 compounds from ChEMBL document CHEMBL4888484, “Replenishing the malaria drug discovery pipeline: Screening and hit evaluation of the MMV Hit Generation Library 1 (HGL1) against asexual blood stage Plasmodium falciparum ,using a nano luciferase reporter read-out” (2022).

Structures are written as SMILES. About 540 (0.36%) of roughly 150,000 compounds showed an effect of 50% or more. The list shows a part of the results.

This test concerns Plasmodium falciparum. Put plainly: Primary screen in NF54 nanoGlo assay, in single point, at 2uM, 72h; a lower Z score goes with more inhibition. To be noted: timepoint 72 hour. Format: functional, Erythrocyte.
Regarding `Cc1ccccc1NC(=O)C(=O)N[C@@H](C)CCc1ccccc1`, the “% Inhibition” value is on record as 2% and the Z score is on record as -0.4.
With `C[C@H](NC(=O)c1cncn1C)c1nnc(N)s1`, the “% Inhibition” value was determined as 4% and the Z score is on record as -0.8.
As to `C=CCCC(=O)N1CCCN(c2ccc3nnc(C)n3n2)CC1`, the “% Inhibition” value is -15% and the Z score is 1.74.
The matching figures for `CN(C)C[C@H]1C[C@H](CO)CN(C(=O)CCc2ccccc2Cl)C1`: -10% and 1.27.
The like results for `O=C(Cn1c2c(c(=O)n1-c1ccccc1)Cc1ccccc1O2)Nc1cccc2ccccc12` were, in that order, -18% and 1.78.
In the case of `COc1ccc(C2CC(C(=O)NCc3cccnc3)N(C)S(=O)(=O)N2)cc1` (stereo not drawn), the “% Inhibition” value is given as -5% and the Z score is recorded as 0.57.
On to `COC[C@H](C)NCc1cc(C)c(C)cc1C`, for which the “% Inhibition” value is on record as -6% and the Z score amounted to 0.76.
The matching figures for `CCn1nc(CNc2nccc(-c3cc(C(=O)O)ccn3)n2)c2ccccc21`: -16% and 1.99.
In the case of `c1cncc(Nc2nncn2Cc2nccs2)c1`, the “% Inhibition” value is given as -7% and the Z score is 1.15.
The like results for `Cc1cc(C(=O)Cn2c(=O)c(C#N)c3n(c2=O)CCC3)c(C)[nH]1` were, in that order, -15% and 2.2.
`CN[C@@H](C)c1nc(CC(N)=O)nn1C1Cc2ccccc2C1`: the “% Inhibition” value was determined as 6% and the Z score was -0.78.
The like results for `Cc1n[nH]c(C(=O)N2C[C@H]3CCC[C@@H](C2)N(C)C3=O)c1Cl` were, in that order, -13% and 1.64.
Turning to `Cc1nc(-c2csc(S(=O)(=O)Nc3ccccc3C(C)C)c2)sc1C`, the “% Inhibition” value amounted to 5% and the Z score is -0.59.
`O=C(NCc1ncc[nH]1)c1ccc2c(c1)OCO2`: the “% Inhibition” value came out at 4% and the Z score is listed as -0.45.
Turning to `CCOc1ccc(OCc2n[nH]c([C@H]3CCOC(C)(C)C3)n2)cc1`, the “% Inhibition” value was -2% and the Z score came out at 0.37.
As for `Cc1noc(-c2sccc2NC(=O)c2ccccn2)n1`, the “% Inhibition” value is given as -1% and the Z score was 0.1.
As to `COc1ccc(-c2c(C)n[nH]c2NC(=O)CCc2ccccc2)cc1OC`, the “% Inhibition” value was -10% and the Z score is reported as 1.49.
The like results for `N#CC1(CCCn2cnc3c2CCCC3)CCOCC1` were, in that order, 3% and -0.43.
`C#CCn1cc(CN(C)C(=O)NC2CC2c2cccc(Cl)c2)cn1` (stereo not drawn): the “% Inhibition” value was -4% and the Z score was found to be 0.57.
For `Cc1nc(-c2ncc(C(=O)N3CCO[C@H](c4ccccc4)C3)c(O)n2)cs1`, the “% Inhibition” value was -11% and the Z score turned out to be 1.81.
Consider `CCc1ccc2ncc(C#N)c(N3CCC(C(=O)Nc4cccc(C(F)(F)F)c4)CC3)c2c1`, for which the “% Inhibition” value stood at 3% and the Z score was -0.58.
As for `COc1ccc([C@@H]2CN(C(=O)NCc3cc[nH]n3)CCO2)cc1OC`, the “% Inhibition” value was found to be 5% and the Z score is recorded as -0.91.
With `O=C(c1c(F)c(F)cc(F)c1F)N1CCN(c2nccc(-c3ccc(Oc4ccccc4)cc3)n2)CC1`, the “% Inhibition” value is 0% and the Z score is reported as 0.04.
In the case of `Cc1cc(C)c(CN2CCCN(C)CC2)c(-n2cccn2)c1`, the “% Inhibition” value is recorded as 6% and the Z score is -1.18.
For `COc1ccc(-c2nc(CN3CC[C@H](N)C3)c(C)o2)c2ccccc12`, the “% Inhibition” value was 7% and the Z score is listed as -0.98.
In the case of `COCCNC(=O)NC[C@H](O)c1ccc2c(ccn2C)c1`, the “% Inhibition” value was 1% and the Z score is -0.14.
With `COc1ccc(-c2nc(-c3ccc4c(c3)ncn4CCC(=O)N3CCCC3)no2)c(C)c1`, the “% Inhibition” value is 4% and the Z score was -0.57.
Regarding `Cc1ccc2oc(-c3noc([C@]45CNC[C@H]4CCOC5)n3)cc2c1`, the “% Inhibition” value worked out at 4% and the Z score is reported as -0.83.
For `Nc1cc(C2CCN(C(=O)Nc3ccc(F)cc3)CC2)no1`, the “% Inhibition” value is -3% and the Z score was 0.5.
For the compound `Cc1cc(C(=O)N2CCOCC2)nn1CC(=O)Nc1ccc(F)c(Cl)c1`, the “% Inhibition” value is -7% and the Z score was 1.2.
`CCc1cc(Cn2ccnc2-c2ccnc(CC)n2)on1`: the “% Inhibition” value is reported as -11% and the Z score was determined as 1.65.
For `COc1ccc(-c2cnc3ncnn3c2N2CCN(C(C)=O)CC2)cc1OC`, the “% Inhibition” value is listed as -8% and the Z score was 1.03.
Consider `O=C(O)c1ccc(-c2ccc(CNC3CCCC3)o2)cc1`, for which the “% Inhibition” value was -10% and the Z score amounted to 1.87.
On to `CN(C)C1CCCC1Oc1nccs1` (stereo not drawn), for which the “% Inhibition” value is given as -6% and the Z score is listed as 1.16.
As for `O=C(Cc1ccc(F)cc1Cl)N[C@H]1CCOC2(CCOCC2)C1`, the “% Inhibition” value is reported as -9% and the Z score came to 1.89.
For the compound `Fc1ccc(OCc2nc([C@@H]3CCCCN3)n(CC(F)(F)F)n2)cc1`, the “% Inhibition” value is 1% and the Z score is on record as -0.11.
As for `CC(C)NCCNC1CCOC1c1ccc(Cl)c(F)c1` (stereo not drawn), the “% Inhibition” value is -15% and the Z score is given as 1.92.
`C[C@H]1CN(c2cccc(Cl)c2)CCN1c1nccn2nnnc12`: the “% Inhibition” value is -16% and the Z score is 2.47.
With `Cc1cc(C)c(C#N)c(N(C)CCCn2cccn2)n1`, the “% Inhibition” value was -18% and the Z score was determined as 1.97.
With `O=C(c1ccc(S(=O)(=O)NC2CC2)o1)N1CCN(c2ccccc2F)CC1`, the “% Inhibition” value is listed as -11% and the Z score came to 1.55.
Consider `Cc1nn(C)c(Cl)c1S(=O)(=O)N1CCn2cncc2C1`, for which the “% Inhibition” value is given as -3% and the Z score is 0.31.
The matching figures for `Cn1cc(-c2ccc3c(n2)N(C(=O)CCc2c[nH]c4ccccc24)CCC3)cn1`: 12% and -1.36.
The matching figures for `O=C(Cn1ncc(=O)c2ccccc21)N1CCC(C(=O)N2CCCCCC2)CC1`: 2% and -0.35.
The like results for `COc1cc2ccccc2cc1C(=O)Nc1nnc(-c2ccco2)o1` were, in that order, -2% and 0.41.
Consider `C/C=C/CC(=O)N1CCC[C@H](c2cc(N3CCOCC3)ncn2)C1`, for which the “% Inhibition” value was -14% and the Z score was 1.41.
The like results for `Cc1cnccc1CN(C)C(=O)c1ccc([C@H]2CCCNC2)cc1` were, in that order, 13% and -1.83.
For `CCn1nc(CN2CCC[C@H](NC(=O)c3cc(Cl)ccc3OC)C2)c2c1CCOC2`, the “% Inhibition” value is on record as -5% and the Z score is 0.83.
As to `Cc1oc(-c2cnn(C)c2)nc1C(=O)NC1(CO)CC1`, the “% Inhibition” value was found to be 1% and the Z score is on record as -0.26.
As for `CCN1CCN(C(=O)c2cc(-c3ccc(OC)c(S(=O)(=O)N4CCCCC4)c3)[nH]n2)CC1`, the “% Inhibition” value is -10% and the Z score is given as 1.58.
The matching figures for `CS(=O)(=O)CC(=O)N1CCNC(=O)[C@@H]1c1ccc(C(F)(F)F)cc1`: -12% and 1.05.
The like results for `CC(=O)N1CC(OCC(=O)Nc2sc(-c3ccccc3)cc2C#N)C1` were, in that order, -12% and 1.13.
Regarding `COc1ccc(NC(=O)Nc2cccc(Cl)c2)cc1N1CCCN(Cc2cccc(Cl)c2)C1=O`, the “% Inhibition” value is -10% and the Z score amounted to 1.41.
Turning to `CCN(CC(=O)Nc1ccc(Br)cc1)C(=O)CCNC(C)=O`, the “% Inhibition” value is given as -4% and the Z score came out at 0.55.
In the case of `Cc1cc(C)n(-c2ccc(-c3noc(C(C)(O)C(C)c4ccccc4)n3)cn2)n1` (stereo not drawn), the “% Inhibition” value is reported as -10% and the Z score is 1.45.
With `O=C(c1nn(-c2cccc(F)c2)c2c1CCCC2)N1CCn2ncnc2C1`, the “% Inhibition” value is -7% and the Z score amounted to 1.11.
Consider `NC1(c2noc(-c3ccc(-c4nc(C5CC5)n[nH]4)cc3)n2)CCCC1`, for which the “% Inhibition” value was 10% and the Z score was -1.86.
Take `Cc1cc(N2CCC[C@H](NC(=O)c3ncsc3C(F)(F)F)C2)n(C)n1`: the “% Inhibition” value was -5% and the Z score turned out to be 0.56.
On to `O=c1ccc2c(N3CCOCC3)ncnc2n1CCCO`, for which the “% Inhibition” value was -14% and the Z score is reported as 2.38.
`COCC[C@H](C)NS(=O)(=O)c1cc(Cl)c(N)c(Cl)c1`: the “% Inhibition” value is given as 7% and the Z score is -0.74.
Consider `COc1cn(C)c(C(=O)N2CCN(S(=O)(=O)c3ccc(F)cc3)CC2)cc1=O`, for which the “% Inhibition” value is given as -9% and the Z score is listed as 0.93.
On to `COCCN1C(=O)C2C(C(O)c3ccc(Cl)cc3)NC3(C(=O)Nc4ccccc43)C2C1=O` (stereo not drawn), for which the “% Inhibition” value was found to be 2% and the Z score is listed as -0.23.
The like results for `CC(=O)N[C@@H]1C[C@H](CC(C)C)O[C@H](c2ccc(Cl)cc2)C1` were, in that order, 19% and -2.13.
For `CCCN1CCN(CCCNC(=O)c2c(N3CCCC3=O)c3cc(F)ccc3n2CC)CC1`, the “% Inhibition” value was -4% and the Z score came out at 0.59.
Turning to `Cn1cc(-c2csc(-c3ccncc3)n2)cn1`, the “% Inhibition” value is given as -11% and the Z score was found to be 1.89.
In the case of `Cc1csc(CCNC(=O)Nc2ccnn2C[C@@H]2CC=CCC2)n1`, the “% Inhibition” value is reported as -13% and the Z score turned out to be 1.69.
`O=C(O)C(Cc1cccc2ccccc12)NC(=O)[C@@H]1CCCO1` (stereo partly drawn): the “% Inhibition” value is on record as -17% and the Z score is given as 3.12.
Turning to `Cc1nc2ccc(Cl)cn2c1NC(=O)C1CCOCC1`, the “% Inhibition” value was -18% and the Z score is 1.63.
As for `Cc1cc(N2CCC3(NC(=O)Cn4ncn(C)c4=O)CCCC23)nc(CO)n1` (stereo not drawn), the “% Inhibition” value was -5% and the Z score came out at 1.02.
Take `Cc1ccc(CCC(=O)N2CC(OCC(F)(F)F)C2)cc1F`: the “% Inhibition” value is on record as -3% and the Z score was found to be 0.44.
On to `CC1(O)CCN(c2cncc(OCC3CCCC3)n2)CC1`, for which the “% Inhibition” value was -4% and the Z score came to 0.82.
With `COc1ccc2c(c1)CCC[C@@]2(O)CNC(=O)Nc1cccs1`, the “% Inhibition” value is -11% and the Z score is 1.36.
For `O=C(NC1(CC2CC2)CCN(Cc2ccccn2)CC1)c1ccccc1`, the “% Inhibition” value is reported as -3% and the Z score turned out to be 0.6.
The matching figures for `O=C(Cc1cccnc1)N1CC[C@H](Oc2cccnn2)C1`: -5% and 0.61.
As to `Cc1cc(Nc2ccc(C)c(Cl)c2)c2cccc(C)c2n1`, the “% Inhibition” value was 23% and the Z score is -2.05.
For `CCS(=O)(=O)N1C[C@@H]2CN(Cc3ccc(C)o3)C[C@]2(c2nc(C)no2)C1`, the “% Inhibition” value is -11% and the Z score is 1.42.
Take `CCN(CCOc1cccc(Cl)c1)C(=O)Cn1nc(C)cc1N`: the “% Inhibition” value stood at 3% and the Z score is recorded as -0.25.
On to `CS(=O)(=O)N1CCN(C(=O)NC[C@@H](c2ccsc2)n2cccn2)C1=O`, for which the “% Inhibition” value is listed as -11% and the Z score is 2.16.
`COC1CCCC(OC(=O)c2ccccc2-c2cncnc2)C1` (stereo not drawn): the “% Inhibition” value was -4% and the Z score was determined as 0.62.
In the case of `O=c1[nH]nc(-c2ccc(Br)cc2)nc1Cc1ccc(Br)cc1`, the “% Inhibition” value is -3% and the Z score came out at 0.53.
For the compound `N#Cc1cc(Br)ccc1N1CCC[C@H](Cn2cncn2)C1`, the “% Inhibition” value is listed as -2% and the Z score came to 0.22.
The like results for `Cc1c(C2CC2)n[nH]c1NC(=O)Cc1ccccc1OC(F)F` were, in that order, -7% and 0.91.
Regarding `Cn1c(=O)[nH]c2nnc(-c3ccc4c(c3)OCO4)nc2c1=O`, the “% Inhibition” value is 17% and the Z score is recorded as -2.25.
The matching figures for `NC(=O)c1nccnc1C(=O)N1CCc2c(Cl)cccc2C1`: 4% and -0.8.
Regarding `Cc1cc(O[C@H]2CCCN(C(=O)NCc3ccc4c(c3)OCO4)C2)nc(C)n1`, the “% Inhibition” value stood at 2% and the Z score was -0.26.

A word on the % Inhibition: it is the change of the read-out against control, counted positive when it falls.
